From patent publication US9833433B1, “Compositions, methods of use, and methods of treatment” (priority 2013, dated 2017)

Tested on: GluA1, GluN2A, GluN2B
Assay: Immunostaining of synaptic and extrasynaptic glutamate receptor subunits in hippocampal CA1
Details: repeated Δ^9-THC exposure

`CCCCCc1cc(O)c2c(c1)OC(C)(C)[C@@H]1CCC(C)=C[C@@H]21` [Δ^9-THC, Δ^9-tetrahydrocannabinol] was tested, and the “synaptic and extrasynaptic GluA1, GluN2A, GluN2B expression (immunostaining)” value was “significantly reduced”.
